The list shows a part of the results. Further columns of the screen follow, without active or inactive calls. Words in brackets tell the shape of the fitted curve; partial curves, single points and poor fits give uncertain potencies.

What is called AC50 is the concentration giving half of the maximal activity seen.
Tags tell the direction and shape of the fitted curve.

The nature of the experiment: qHTS drug screen for cell cycle checkpoint inhibitors in PARPi-resistant BRCA-mutant ovarian cancer cell lines. (AID 1963452). To be noted: PEO1/OlaR viability, CellTiter-Glo luminescence, 96 h; measured here: PEO4 viability. The procedure, abridged:
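PEO1, PEO4 and PEO1/OlaR ovarian cancer cells, 600 per well, exposed 96 h at 37C to a dilution series. Viability read by CellTiter-Glo luminescence, normalized to DMSO and empty wells; activity summarized as Z-AUC.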
(qHTS replaces the single test concentration by a dilution series.)
Take `CC[C@H]1OC(=O)[C@H](C)C(=O)[C@H](C)[C@@H](O[C@H]2O[C@H](C)C[C@H](N(C)C)[C@H]2O)[C@](C)(OC)C[C@@H](C)C(=O)[C@H](C)[C@H]2N(CCCCn3cnc(-c4cccnc4)c3)C(=O)O[C@]12C`: the AC50 is 0.0039 µM [rising, full curve, poor fit].
Under `O=C(NNc1ccccc1)c1ccncc1` stands 24.5 µM [falling, single point]; under `CCNC1(C(N)=O)CCN(c2ncnc3c2nc(-c2ccccc2Cl)n3-c2ccc(Cl)cc2)CC1`, 17.4 µM [falling, single point]; under `O=C(NCc1cccc(O)c1)Nc1nc(-c2ccncc2)cs1`, 9.77 µM [falling, partial curve, poor fit].
With `Fc1ccc(-c2csc3ncnc(NCc4ccc5c(c4)OCO5)c23)cc1`, the AC50 is 13.8 µM [falling, partial curve].
As for `Nc1nc(OC(c2ccc(-c3cccc(F)c3)cc2)C(F)(F)F)cc(-c2ccc(C[C@@H](N)C(=O)O)cc2)n1` (stereo partly drawn), the figure is 0.245 µM [rising, full curve]; as for `O=C(NCc1ccccc1)[C@H](Cc1ccccc1)NC(=O)[C@H]1O[C@@H]1C(=O)NCCc1ccc(O)cc1`, 24.5 µM [falling, single point].
As for `O=C(NCCCNC(=O)c1ccc[nH]c1=O)c1cc(-c2ccccc2)on1`, the figure is 15.5 µM [falling, single point]; as for `CC1=C2C[C@H]3[C@@H](CC[C@@H]4C[C@H](NS(C)(=O)=O)CC[C@@]43C)[C@@H]2CC[C@@]2(C1)O[C@@H]1C[C@H](C)CN[C@H]1[C@H]2C`, 17.4 µM [falling, partial curve]; as for `Cc1nn(C)c(COc2ccc(N3CCN(S(=O)(=O)N(C)C)CC3)cc2)c1-c1cccc2c(CCCOc3cccc4ccccc34)c(C(=O)O)n(CCN3CCOCC3)c12`, 3.47 µM [falling, full curve, poor fit].
With `OC[C@H]1OC(O)C[C@@H](O)[C@H]1O` (stereo partly drawn), the AC50 was 3.47 µM [falling, partial curve, poor fit].
Under `Cc1[nH]c(/C=C2\C(=O)Nc3ccc(S(=O)(=O)Cc4c(Cl)cccc4Cl)cc32)c(C)c1C(=O)N1CCC[C@@H]1CN1CCCC1` stands 24.5 µM [falling, single point]; under `COc1cc(OCc2cccc(-c3ccccc3)c2C)cc(OC)c1CN1CCCC[C@H]1C(=O)O`, 24.5 µM [falling, single point].
As for `Cn1cc(-c2ccc3c(c2)CCN3C(=O)Cc2cccc(C(F)(F)F)c2)c2c(N)ncnc21`, the figure is 24.5 µM [falling, single point].
As for `CC1CCC(C(=O)N(c2cc(C#CC(C)(C)C)sc2C(=O)O)C2CCC(O)CC2)CC1` (stereo not drawn), the figure is 19.5 µM [falling, single point]; as for `O=C(O)C1=CC(O)C(O)[C@H](O)C1` (stereo partly drawn), 1.23 µM [falling, partial curve, poor fit]; as for `O=C(C1CC1)N1CC[C@@H](Cc2n[nH]c(=O)n2-c2ccc(-c3ccc4occc4c3)cc2)C1`, 17.4 µM [falling, partial curve, poor fit].
With `O=C(CN1C(=O)C2(CCCC2)NC[C@H]1c1cc(F)cc(F)c1)Nc1ccc2c(c1)C[C@@]1(C2)C(=O)Nc2ncccc21`, the half-maximal activity concentration (AC50) was 0.0039 µM [rising, full curve, poor fit].
Under `CC(C)NC(=O)COc1cccc(-c2nc(Nc3ccc4[nH]ncc4c3)c3ccccc3n2)c1` stands 2.75 µM [falling, full curve]; under `CC#C[C@@H](CC(=O)O)c1ccc(OCc2cccc(-c3ccc(C(F)(F)F)cc3)c2)cc1`, 17.4 µM [falling, partial curve, poor fit]; under `N#C/C(=C(/N)Sc1ccc(N)cc1)c1ccccc1C(F)(F)F`, 27.5 µM [falling, single point].
Consider `CCN(CCO)CCCOc1ccc2c(Nc3cc(CC(=O)Nc4cccc(F)c4)[nH]n3)ncnc2c1`, for which the AC50 is 2.45 µM [falling, partial curve, poor fit].
Regarding `COc1cccc(Nc2c(C(N)=O)cnc3c(C)cc(S(=O)(=O)c4cccc(C(=O)N(C)C)c4)cc23)c1`, the AC50 is 0.0087 µM [rising, full curve, poor fit].

The values above are taken from PubChem BioAssay (NCATS).
